# Assay results published in patent US5053418A, “Antiprotozoal agents” (Burroughs Wellcome Co., priority 1983, dated 1991).
# Values joined by “and” are separate entries in the source; they are usually repeats but may differ in a detail not shown here. Equal values may be shown once. At least one read-out could not be matched to a standard name with certainty.
# Columns and labels:
# P.falciparum = experiment: In vitro activity against P.falciparum: inhibition of 3H-adenosine/3H-hypoxanthine incorporation (modified Desjardins); format: cell-based
# Procedure: Each of the two compounds to be tested were dissolved in ethanol at a concentration of 10 mg/L and serially diluted with RPMI 1640 medium and 10% (v/v) human plasma in microtitration plates. P.falciparum-parasitised and fresh blood cells were added together with ^3 H-adenosine or ^3 H-hypoxanthinein RPMI 1640 medium and 10% human plasma. The cultures were then incubated at 37° C. for 43 hours, harvested and the particulate contents collected on glass fibre filter papers which were washed copiously with water using a Cooke Microtiter System (Dynatech Labs. Europe); the filter papers were dried and the radioactivity measured using a scintillation counter. Infected, untreated and uninfected cultures were included as controls. Percent inhibition was correlated with dose to provide an IC50 for each drug alone.
# For subsequent combination experiments the individual drug solutions and mixtures thereof were serially diluted.
# By the method of Example 1 the effect of a number of naphthoquinone/clopidol (4-pyridinol) combinations on P.falciparum in vitro were determined.
# P.yoelii = experiment: In vivo effect on P.yoelii in mice (inhibition of parasitaemia); settings: clopidol alone
# Procedure: The naphthoquinone and the pyridinol were each suspended in 0.25% (w/v) celacol in water by milling for 16-24 hours at 26° C. The suspensions were subsequently serially diluted with 0.25% (w/v) celacol in water. At time 0, 0.1 ml of a suspension of 10^7 P.yoelii-parasitised red blood cells/ml of phosphate buffered saline were injected intravenously into 15-20 g mice through a tail vein. Groups of 5 mice per treatment were dosed orally at times 6, 22, 30, 46, 54, 70 and 78 hours with 0.2 ml of the drug suspension. Tail-blood smears were taken at 96 hours, stained with Giemsa and the percentage of red blood cells infected determined and compared to untreated, infected controls. Percent inhibition was correlated with dose to provide ED50 values for each drug alone. In subsequent experiments dilutions of the two drugs, alone and in combination were used, and the percentage inhibition of parasitaemia and ED50 values (of each drug at fixed concentrations of the other) were determined. The results are shown respectively in Tables V and VI. A number of combinations of clopidol (4-pyridinol) and naphthoquinones were assayed and compared with each drug alone for their antimalarial effect against P.yoelii in vivo by the method of Example 4.
# [1] = naphthoquinone 0.125 + clopidol 0.20 mg/L
# [2] = naphthoquinone 0.125 + clopidol 0.40 mg/L
# [3] = naphthoquinone 0.25 + clopidol 0.20 mg/L
# [4] = naphthoquinone 0.25 + clopidol 0.40 mg/L
# [5] = naphthoquinone 0.00000625 + clopidol 0.200 mg/L
# [6] = naphthoquinone 0.00000625 + clopidol 0.400 mg/L
# [7] = naphthoquinone 0.0000125 + clopidol 0.200 mg/L
# [8] = naphthoquinone 0.0000125 + clopidol 0.400 mg/L
smiles,measurement,setting,value
"CC(C)(C)C1CCC(C2=C(Cl)C(=O)c3ccccc3C2=O)CC1 (centres unmarked) [2-(4-t-butylcyclohexyl)-3-chloro-1,4-naphthoquinone]",% inhibition (combination),P.falciparum; naphthoquinone 0.0039 + clopidol 0.20 mg/L,27%
same,% inhibition (combination),P.falciparum; naphthoquinone 0.0078 + clopidol 0.10 mg/L,32%
same,% inhibition (combination),P.falciparum; naphthoquinone 0.0078 + clopidol 0.20 mg/L,23%
same,% inhibition (combination),P.falciparum; naphthoquinone 0.0078 + clopidol 0.40 mg/L,32%
same,% inhibition (combination),P.falciparum; naphthoquinone 0.0156 + clopidol 0.050 mg/L,2%
same,% inhibition (combination),P.falciparum; naphthoquinone 0.0156 + clopidol 0.10 mg/L,37%
same,% inhibition (combination),P.falciparum; naphthoquinone 0.0156 + clopidol 0.20 mg/L,32%
same,% inhibition (combination),P.falciparum; naphthoquinone 0.0156 + clopidol 0.40 mg/L,26%
same,% inhibition (combination),P.falciparum; naphthoquinone 0.0156 + clopidol 0.80 mg/L,27%
same,% inhibition (combination),P.falciparum; naphthoquinone 0.03125 + clopidol 0.025 mg/L,3%
same,% inhibition (combination),P.falciparum; naphthoquinone 0.03125 + clopidol 0.050 mg/L,11%
same,% inhibition (combination),P.falciparum; naphthoquinone 0.03125 + clopidol 0.20 mg/L,25%
same,% inhibition (combination),P.falciparum; naphthoquinone 0.03125 + clopidol 0.40 mg/L,29%
same,% inhibition (combination),P.falciparum; naphthoquinone 0.03125 + clopidol 0.80 mg/L,33%
same,% inhibition (combination),P.falciparum; naphthoquinone 0.03125 + clopidol 1.6 mg/L,50%
same,% inhibition (combination),P.falciparum; naphthoquinone 0.0625 + clopidol 0.0125 mg/L,25%
same,% inhibition (combination),P.falciparum; naphthoquinone 0.0625 + clopidol 0.050 mg/L,37%
same,% inhibition (combination),P.falciparum; naphthoquinone 0.0625 + clopidol 0.10 mg/L,23%
same,% inhibition (combination),P.falciparum; naphthoquinone 0.0625 + clopidol 0.20 mg/L,36%
same,% inhibition (combination),P.falciparum; naphthoquinone 0.0625 + clopidol 0.40 mg/L,29%
same,% inhibition (combination),P.falciparum; naphthoquinone 0.0625 + clopidol 0.80 mg/L,47%
same,% inhibition (combination),P.falciparum; naphthoquinone 0.0625 + clopidol 1.6 mg/L,58%
same,% inhibition (combination),P.falciparum; naphthoquinone 0.0625 + clopidol 3.2 mg/L,64%
same,% inhibition (combination),P.falciparum; naphthoquinone 0.125 + clopidol 0.0063 mg/L,6%
same,% inhibition (combination),P.falciparum; naphthoquinone 0.125 + clopidol 0.0125 mg/L,8%
same,% inhibition (combination),P.falciparum; naphthoquinone 0.125 + clopidol 0.025 mg/L,41%
same,% inhibition (combination),P.falciparum; naphthoquinone 0.125 + clopidol 0.050 mg/L,43%
same,% inhibition (combination),P.falciparum; naphthoquinone 0.125 + clopidol 0.10 mg/L,47%
same,% inhibition (combination),P.falciparum; [1],34%
same,% inhibition (combination),P.falciparum; [2],47%
same,% inhibition (combination),P.falciparum; naphthoquinone 0.125 + clopidol 0.80 mg/L,57%
same,% inhibition (combination),P.falciparum; naphthoquinone 0.125 + clopidol 1.6 mg/L,60%
same,% inhibition (combination),P.falciparum; naphthoquinone 0.125 + clopidol 3.2 mg/L,70%
same,% inhibition (combination),P.falciparum; naphthoquinone 0.125 + clopidol 6.4 mg/L,83%
same,% inhibition (combination),P.falciparum; naphthoquinone 0.25 + clopidol 0.0063 mg/L,23%
same,% inhibition (combination),P.falciparum; naphthoquinone 0.25 + clopidol 0.025 mg/L,47%
same,% inhibition (combination),P.falciparum; naphthoquinone 0.25 + clopidol 0.050 mg/L,37%
same,% inhibition (combination),P.falciparum; naphthoquinone 0.25 + clopidol 0.10 mg/L,56%
same,% inhibition (combination),P.falciparum; [3],68%
same,% inhibition (combination),P.falciparum; [4],60%
same,% inhibition (combination),P.falciparum; naphthoquinone 0.25 + clopidol 0.80 mg/L,66%
same,% inhibition (combination),P.falciparum; naphthoquinone 0.25 + clopidol 1.6 mg/L,74%
same,% inhibition (combination),P.falciparum; naphthoquinone 0.25 + clopidol 3.2 mg/L,74%
same,% inhibition (combination),P.falciparum; naphthoquinone 0.25 + clopidol 6.4 mg/L,79%
same,% inhibition (combination),P.falciparum; naphthoquinone 0.50 + clopidol 0.0125 mg/L,30%
same,% inhibition (combination),P.falciparum; naphthoquinone 0.50 + clopidol 0.025 mg/L,47%
same,% inhibition (combination),P.falciparum; naphthoquinone 0.50 + clopidol 0.050 mg/L,49%
same,% inhibition (combination),P.falciparum; naphthoquinone 0.50 + clopidol 0.10 mg/L,60%
same,% inhibition (combination),P.falciparum; naphthoquinone 0.50 + clopidol 0.20 mg/L,62%
same,% inhibition (combination),P.falciparum; naphthoquinone 0.50 + clopidol 0.40 mg/L,74%
same,% inhibition (combination),P.falciparum; naphthoquinone 0.50 + clopidol 0.80 mg/L,78%
same,% inhibition (combination),P.falciparum; naphthoquinone 0.50 + clopidol 1.6 mg/L,78%
same,% inhibition (combination),P.falciparum; naphthoquinone 0.50 + clopidol 3.2 mg/L,78%
same,% inhibition (combination),P.falciparum; naphthoquinone 1.0 + clopidol 0.025 mg/L,56%
same,% inhibition (combination),P.falciparum; naphthoquinone 1.0 + clopidol 0.050 mg/L,57%
same,% inhibition (combination),P.falciparum; naphthoquinone 1.0 + clopidol 0.10 mg/L,70%
same,% inhibition (combination),P.falciparum; naphthoquinone 1.0 + clopidol 0.20 mg/L,70%
same,% inhibition (combination),P.falciparum; naphthoquinone 1.0 + clopidol 0.40 mg/L,74%
same,% inhibition (combination),P.falciparum; naphthoquinone 1.0 + clopidol 0.80 mg/L,81%
same,% inhibition (combination),P.falciparum; naphthoquinone 1.0 + clopidol 1.6 mg/L,81%
same,% inhibition (combination),P.falciparum; naphthoquinone 2.0 + clopidol 0.050 mg/L,70%
same,% inhibition (combination),P.falciparum; naphthoquinone 2.0 + clopidol 0.20 mg/L,78%
same,% inhibition (combination),P.falciparum; naphthoquinone 2.0 + clopidol 0.40 mg/L,81%
same,% inhibition (combination),P.falciparum; naphthoquinone 2.0 + clopidol 0.80 mg/L,77%
same,% inhibition (combination),P.falciparum; naphthoquinone 4.0 + clopidol 0.10 mg/L,80%
same,% inhibition (combination),P.falciparum; naphthoquinone 4.0 + clopidol 0.20 mg/L,83%
same,% inhibition (combination),P.falciparum; naphthoquinone 4.0 + clopidol 0.40 mg/L,84%
"CCCc1nc(CCC)c(Cl)c(O)c1Cl [X = Cl, R^3 = Pr, 3,5-dichloro-2,6-dipropyl-4-pyridinol]",% inhibition (combination),"P.falciparum; 2-(4-t-butylcyclohexyl)-3-hydroxy-1,4-naphthoquinone 0.00003125 + 4-pyridinol analogue 1.25 mg/L",36%
same,% inhibition (combination),"P.falciparum; 2-(4-t-butylcyclohexyl)-3-hydroxy-1,4-naphthoquinone 0.0000325 + 4-pyridinol analogue 0.625 mg/L",38%
same,% inhibition (combination),"P.falciparum; 2-(4-t-butylcyclohexyl)-3-hydroxy-1,4-naphthoquinone 0.0000625 + 4-pyridinol analogue 0.625 mg/L",48%
same,% inhibition (combination),"P.falciparum; 2-(4-t-butylcyclohexyl)-3-hydroxy-1,4-naphthoquinone 0.0000625 + 4-pyridinol analogue 1.25 mg/L",58%
"Cc1nc(C)c(Cl)c(O)c1Cl [Clopidol, 3,5-dichloro-2,6-dimethyl-4-pyridinol, reference compound]",% inhibition of parasitaemia,"P.yoelii; 1.4 mg/Kg × 7, 1.4 mg/kg",2% and 4% and 0% and 1%
same,% inhibition of parasitaemia,"P.yoelii; 1.9 mg/Kg × 7, 1.9 mg/kg",0% and 6%
same,% inhibition of parasitaemia,"P.yoelii; 5.0 mg/Kg × 7, 5 mg/kg",0% and 1%
O=C1C(O)=C(C2CCCC2)C(=O)c2ccccc21,% inhibition (combination),P.falciparum; naphthoquinone 0.625 + clopidol 0.200 mg/L,27%
same,% inhibition (combination),P.falciparum; naphthoquinone 0.625 + clopidol 0.400 mg/L,52%
same,% inhibition (combination),P.falciparum; naphthoquinone 1.25 + clopidol 0.200 mg/L,65%
same,% inhibition (combination),P.falciparum; naphthoquinone 1.25 + clopidol 0.400 mg/L,67%
"CCCc1nc(CCC)c(Br)c(O)c1Br [X = Br, R^3 = Pr, 3,5-dibromo-2,6-dipropyl-4-pyridinol]",% inhibition (combination),"P.falciparum; 2-(4-t-butylcyclohexyl)-3-hydroxy-1,4-naphthoquinone 0.0000156 + 4-pyridinol analogue 3.125 mg/L",27%
same,% inhibition (combination),"P.falciparum; 2-(4-t-butylcyclohexyl)-3-hydroxy-1,4-naphthoquinone 0.0000156 + 4-pyridinol analogue 6.25 mg/L",25%
same,% inhibition (combination),"P.falciparum; 2-(4-t-butylcyclohexyl)-3-hydroxy-1,4-naphthoquinone 0.0000625 + 4-pyridinol analogue 3.125 mg/L",59%
same,% inhibition (combination),"P.falciparum; 2-(4-t-butylcyclohexyl)-3-hydroxy-1,4-naphthoquinone 0.0000625 + 4-pyridinol analogue 6.25 mg/L",78%
CC(C)(C)C1CCC(C2=C(O)C(=O)c3ccccc3C2=O)CC1 (centres unmarked) [drawing 10],% inhibition (combination),P.falciparum; [5],21%
same,% inhibition (combination),P.falciparum; [6],51%
same,% inhibition (combination),P.falciparum; [7],36%
same,% inhibition (combination),P.falciparum; [8],47%
CCC(C)(C)C1CCC(C2=C(O)C(=O)c3ccccc3C2=O)CC1 (centres unmarked),% inhibition (combination),P.falciparum; [5],48%
same,% inhibition (combination),P.falciparum; [6],47%
same,% inhibition (combination),P.falciparum; [7],73%
same,% inhibition (combination),P.falciparum; [8],86%
CC(=O)OC1=C(C2CCC(C)(C)CC2)C(=O)c2ccccc2C1=O,% inhibition (combination),P.falciparum; naphthoquinone 0.000750 + clopidol 0.200 mg/L,23%
same,% inhibition (combination),P.falciparum; naphthoquinone 0.000750 + clopidol 0.400 mg/L,44%
same,% inhibition (combination),P.falciparum; naphthoquinone 0.00150 + clopidol 0.200 mg/L,41%
same,% inhibition (combination),P.falciparum; naphthoquinone 0.00150 + clopidol 0.400 mg/L,52%
"CC(C)(C)C1CCC(C2=C(Cl)C(=O)c3ccccc3C2=O)CC1 (centres unmarked) [drawing 6, 2-(4-t-butylcyclohexyl)-3-chloro-1,4-naphthoquinone]",% inhibition (combination),P.falciparum; [1],34%
same,% inhibition (combination),P.falciparum; [2],68%
same,% inhibition (combination),P.falciparum; [3],48%
same,% inhibition (combination),P.falciparum; [4],60%
